This is an account of results in paper PMC12820563.

The list shows a part of the results. The list includes weakly bound sequences.

For the assay, the target named is T1, MBP-FoxP3dN (UniProt Q99JB6).
T1 sequence: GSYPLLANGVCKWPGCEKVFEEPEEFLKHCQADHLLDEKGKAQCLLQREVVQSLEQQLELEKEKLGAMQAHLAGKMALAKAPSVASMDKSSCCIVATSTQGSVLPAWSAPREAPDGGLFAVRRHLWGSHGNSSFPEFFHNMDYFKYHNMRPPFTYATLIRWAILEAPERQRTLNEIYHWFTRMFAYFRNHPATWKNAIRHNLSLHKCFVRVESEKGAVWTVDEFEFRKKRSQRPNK
Put plainly: PD-seq (MBP pull-down with sequencing). Conditions: 20 mM Tris-HCl pH 7.5, 100 mM NaCl, 1.5 mM MgCl2, 0.4 uM protein, 0.1 uM dsDNA library, 30 min, room temperature, amylose pull-down; high values mean tight binding; double strand, one strand shown.
With “GATGATTGTTCTCCCAGCTGATGAATTGATCTTTTCGAGTAAACAAATTTTCCTAATCTTTCTGTTCAAGCGCCATCTAC”, the binding signal (RPM ratio (pull-down/input)) was 0.253.
Take “GATGATTGTTCTCCCAGCTGATGAATTAGCCGCGTCGAGTAAACAAATTTTCCTAATCTTTCTGTTCAAGCGCCATCTAC”: the binding signal (RPM ratio (pull-down/input)) was 0.498.
As for “GATGATTGTTCTCCCAGCTGATGAATTCATGGGGTCGAGTAAACAAATTTTCCTAATCTTTCTGTTCAAGCGCCATCTAC”, the binding signal (RPM ratio (pull-down/input)) worked out at 0.44.
Take “GATGATTGTTCTCCCAGCTGATGAATTGCGATTATCGAGTAAACAAATTTTCCTAATCTTTCTGTTCAAGCGCCATCTAC”: the binding signal (RPM ratio (pull-down/input)) is 1.94.
As to “GATGATTGTTCTCCCAGCTGATGAATTGTGCACGTCGAGTAAACAAATTTTCCTAATCTTTCTGTTCAAGCGCCATCTAC”, the binding signal (RPM ratio (pull-down/input)) is 3.73.
For the sequence “GATGATTGTTCTCCCAGCTGATGAATTAAACATGTCGAGTAAACAAATTTTCCTAATCTTTCTGTTCAAGCGCCATCTAC”, the binding signal (RPM ratio (pull-down/input)) stood at 0.651.
Consider “GATGATTGTTCTCCCAGCTGATGAATTGTGTCCGTCGAGTAAACAAATTTTCCTAATCTTTCTGTTCAAGCGCCATCTAC”, for which the binding signal (RPM ratio (pull-down/input)) was 0.938.
On to “GATGATTGTTCTCCCAGCTGATGAATTAATCAATTCGAGTAAACAAATTTTCCTAATCTTTCTGTTCAAGCGCCATCTAC”, for which the binding signal (RPM ratio (pull-down/input)) stood at 0.407.
In the case of “GATGATTGTTCTCCCAGCTGATGAATTGATATGGTCGAGTAAACAAATTTTCCTAATCTTTCTGTTCAAGCGCCATCTAC”, the binding signal (RPM ratio (pull-down/input)) amounted to 0.678.
Turning to “GATGATTGTTCTCCCAGCTGATGAATTTGTCGCTTCGAGTAAACAAATTTTCCTAATCTTTCTGTTCAAGCGCCATCTAC”, the binding signal (RPM ratio (pull-down/input)) came to 3.62.
In the case of “GATGATTGTTCTCCCAGCTGATGAATTTTTGAGTTCGAGTAAACAAATTTTCCTAATCTTTCTGTTCAAGCGCCATCTAC”, the binding signal (RPM ratio (pull-down/input)) was determined as 0.454.
On to “GATGATTGTTCTCCCAGCTGATGAATTACCTTTTTCGAGTAAACAAATTTTCCTAATCTTTCTGTTCAAGCGCCATCTAC”, for which the binding signal (RPM ratio (pull-down/input)) was 0.319.
On to “GATGATTGTTCTCCCAGCTGATGAATTACAACGGTCGAGTAAACAAATTTTCCTAATCTTTCTGTTCAAGCGCCATCTAC”, for which the binding signal (RPM ratio (pull-down/input)) was found to be 0.489.
Consider “GATGATTGTTCTCCCAGCTGATGAATTAATCACCTCGAGTAAACAAATTTTCCTAATCTTTCTGTTCAAGCGCCATCTAC”, for which the binding signal (RPM ratio (pull-down/input)) came out at 0.759.
Under “GATGATTGTTCTCCCAGCTGATGAATTGGGTCTGTCGAGTAAACAAATTTTCCTAATCTTTCTGTTCAAGCGCCATCTAC” stands 0.361; under “GATGATTGTTCTCCCAGCTGATGAATTCTGTCTTTCGAGTAAACAAATTTTCCTAATCTTTCTGTTCAAGCGCCATCTAC”, 1.28.
Regarding “GATGATTGTTCTCCCAGCTGATGAATTGTGTTACTCGAGTAAACAAATTTTCCTAATCTTTCTGTTCAAGCGCCATCTAC”, the binding signal (RPM ratio (pull-down/input)) worked out at 3.41.
For “GATGATTGTTCTCCCAGCTGATGAATTATAAAGGTCGAGTAAACAAATTTTCCTAATCTTTCTGTTCAAGCGCCATCTAC”, the binding signal (RPM ratio (pull-down/input)) was 0.205.
As to “GATGATTGTTCTCCCAGCTGATGAATTTCGGTGCTCGAGTAAACAAATTTTCCTAATCTTTCTGTTCAAGCGCCATCTAC”, the binding signal (RPM ratio (pull-down/input)) was 0.541.
Turning to “GATGATTGTTCTCCCAGCTGATGAATTCATGTTGTCGAGTAAACAAATTTTCCTAATCTTTCTGTTCAAGCGCCATCTAC”, the binding signal (RPM ratio (pull-down/input)) worked out at 1.83.
Regarding “GATGATTGTTCTCCCAGCTGATGAATTATCTATATCGAGTAAACAAATTTTCCTAATCTTTCTGTTCAAGCGCCATCTAC”, the binding signal (RPM ratio (pull-down/input)) was 0.454.
Then “GATGATTGTTCTCCCAGCTGATGAATTTTTTCGTTCGAGTAAACAAATTTTCCTAATCTTTCTGTTCAAGCGCCATCTAC”, with 0.221.
Then “GATGATTGTTCTCCCAGCTGATGAATTAGCCGAATCGAGTAAACAAATTTTCCTAATCTTTCTGTTCAAGCGCCATCTAC”, with 0.215; and “GATGATTGTTCTCCCAGCTGATGAATTAGCCCCATCGAGTAAACAAATTTTCCTAATCTTTCTGTTCAAGCGCCATCTAC”, with 0.324.
Take “GATGATTGTTCTCCCAGCTGATGAATTTGATACATCGAGTAAACAAATTTTCCTAATCTTTCTGTTCAAGCGCCATCTAC”: the binding signal (RPM ratio (pull-down/input)) was 0.938.
With “GATGATTGTTCTCCCAGCTGATGAATTTCGTAACTCGAGTAAACAAATTTTCCTAATCTTTCTGTTCAAGCGCCATCTAC”, the binding signal (RPM ratio (pull-down/input)) was 1.69.
On to “GATGATTGTTCTCCCAGCTGATGAATTATTCGTATCGAGTAAACAAATTTTCCTAATCTTTCTGTTCAAGCGCCATCTAC”, for which the binding signal (RPM ratio (pull-down/input)) is 0.546.
For the sequence “GATGATTGTTCTCCCAGCTGATGAATTCTAAAGCTCGAGTAAACAAATTTTCCTAATCTTTCTGTTCAAGCGCCATCTAC”, the binding signal (RPM ratio (pull-down/input)) was 0.248.
With “GATGATTGTTCTCCCAGCTGATGAATTAACCAATTCGAGTAAACAAATTTTCCTAATCTTTCTGTTCAAGCGCCATCTAC”, the binding signal (RPM ratio (pull-down/input)) is 0.289.
Regarding “GATGATTGTTCTCCCAGCTGATGAATTGGATGGGTCGAGTAAACAAATTTTCCTAATCTTTCTGTTCAAGCGCCATCTAC”, the binding signal (RPM ratio (pull-down/input)) amounted to 0.572.
Under “GATGATTGTTCTCCCAGCTGATGAATTCTGTACTTCGAGTAAACAAATTTTCCTAATCTTTCTGTTCAAGCGCCATCTAC” stands 0.834; under “GATGATTGTTCTCCCAGCTGATGAATTTTACCGATCGAGTAAACAAATTTTCCTAATCTTTCTGTTCAAGCGCCATCTAC”, 0.227.
